Test results as given in PubChem BioAssay AID686978 (National Center for Advancing Translational Sciences (NCATS), 2013).
In all, about 420,000 compounds went through this assay and about 64,000 (15%) were called active. The inconclusive results got no clear call from the source; some entries with a clear call stand among them for comparison. Calls come from the whole dose curve; as a rule, active = well fitted inhibition curve with a large enough effect; inconclusive = small, poorly fitted or top-dose-only effect; inactive = flat fitted curve, though single readings scatter. No potency is given beside an inconclusive call; the fits are too rough.

Experiment: qHTS for Inhibitors of human tyrosyl-DNA phosphodiesterase 1 (TDP1): qHTS in cells in absence of CPT; note: nearly all actives have a fitted effect of over 55% in size
Details: DT40 Tdp1-/- hTDP1 cells, no CPT, ATP luminescence, 48 h; activity change, negative = growth inhibition: at 46.2 µM (top of the series)
Method in brief: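 Chicken DT40 Tdp1-/- cells complemented with human TDP1, screened without camptothecin (DMSO vehicle only), 400 cells/well. Compounds pin-transferred, cells incubated at 37 °C for at least 48 hr. Growth read as ATP-dependent luminescence (CellTiter-Glo, 30 min at RT).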
% is set by controls: 0 for no effect and ±100 for the full control effect; potency is the fitted concentration of half-maximal effect; tags give direction and shape of the fitted curve.

SMILES	Potency	activity change, negative = growth inhibition
CCCCCCCNC(=O)COc1ccc2c(c1)C(=O)CC(C)(C)O2	inconclusive [inhibitor, single point]	
COc1ccc(S(=O)(=O)NC(CC(=O)N2CCc3ccccc32)c2ccco2)cc1 (stereo not drawn)	inactive	
O=C(CN1CCN(c2ccc(O)cc2)CC1)Nc1cc([N+](=O)[O-])ccc1Cl	active: 20.6 µM	
COc1ccc(S(=O)(=O)Nc2ccc(NC(C)=O)cc2)cc1	inconclusive [inhibitor, partial curve, poor fit]	
CN(C(=O)CSc1nc2scc(-c3ccccc3)c2c(=O)[nH]1)c1ccccc1	inconclusive [inhibitor, single point]	
CC(Oc1ccccc1)C(=O)N1CCC2(CC1)Oc1ccc(F)cc1C(=O)C21CC(c2cccnc2)=NO1 (stereo not drawn)	inconclusive [inhibitor, single point]	
CCN(CC)S(=O)(=O)c1ccc(C)c(NC(=S)N2CCN(c3ccccn3)CC2)c1	active: 14.6 µM	
CCCCn1nnnc1C(c1ccccc1)N1CCN(c2cccc(C)c2C)CC1 (stereo not drawn)	active: 16.4 µM	
Cc1nc(NC(=O)CSc2nc3cccnc3n2Cc2ccccc2)sc1C	inconclusive [inhibitor, partial curve, poor fit]	
COc1ccc(CCn2nnc3ccccc3c2=O)cc1OC	inconclusive [inhibitor, single point]	
CC1CCCCC12NC(=O)N(CC(=O)N1CCc3ccccc3C1)C2=O (stereo not drawn)	inactive	
CCOc1ccc(-c2nnc(-c3cccs3)o2)cc1OCC	inconclusive [inhibitor, single point]	
COc1ccccc1OCC(=O)NCC(c1ccc(Cl)cc1)N1CCCCC1 (stereo not drawn)	inconclusive [inhibitor, single point]	
O=C(c1ccccc1)N1N=C(c2ccco2)CC1c1cccs1 (stereo not drawn)	active: 20.6 µM	
O=C(O)COc1ccc(C=C2SC(=S)N(c3ccccc3)C2=O)cc1	inactive	
OC(CNC1CCCc2ccccc21)COc1ccc2ccccc2c1 (stereo not drawn)	active: 20.6 µM	
COc1ccccc1CCNC(=O)C(=O)NCC(c1ccc2c(c1)OCO2)N1CCOCC1 (stereo not drawn)	inconclusive [inhibitor, partial curve]	
CCOc1ccc(-c2cccc(NS(=O)(=O)c3c(C)cc(C)cc3C)c2)nn1	active: 23.1 µM	
CC(=O)c1cccc(NC(=O)c2sc(-n3nc(C)c(Cc4ccc5c(c4)OCO5)c3C)nc2C)c1	active: 14.6 µM	
CCOc1ccc(N2C(=O)c3ccccc3C2O)cc1 (stereo not drawn)	inconclusive [inhibitor, single point]	
Cc1ccc(C(C#N)c2ccc(C(=O)c3ccc(F)cc3)cc2)cc1 (stereo not drawn)	active: 8.2 µM	
O=C(Nc1cccc([N+](=O)[O-])c1)c1ccccc1	inactive	
CCOC(=O)c1c(C)c(C(=O)NCc2cccnc2)c(C)n1CC	inactive	
CCc1ccc(CN(C)C(=O)c2cc(S(=O)(=O)N3CCOCC3)ccc2N2CCCC2)cc1	inconclusive [inhibitor, single point]	
Cc1cc(Br)ccc1OCc1nc(-c2cccnc2)no1	inconclusive [inhibitor, partial curve]	

SMILES	Potency	activity change, negative = growth inhibition
CCC(Sc1nc2ccsc2c(=O)n1Cc1ccc(C(=O)O)cc1)C(=O)Nc1ccc(C)c(Cl)c1 (stereo not drawn)	inconclusive [inhibitor, single point]	
C/C(=N\NC(=O)CCn1nc(C)cc1C)C(C)(C)C	inactive	
Cc1ccc(C2SCC(=O)N2c2ccccc2)cc1 (stereo not drawn)	inactive	
[O-][n+]1onc2c1CCc1c-2nn(-c2ccccc2Cl)[n+]1[O-]	active: 14.6 µM	
CCOc1ccc2nc(NC(=O)C3CCN(c4cnccn4)CC3)sc2c1	inconclusive [inhibitor, single point]	
Cc1c(Cl)cccc1NC(=O)Cn1c(CCC(=O)O)ccc1-c1cccs1	inconclusive [inhibitor, single point]	
O=C1CC(c2ccccc2)CC(O)=C1C=Nc1ccc(O)cc1 (stereo not drawn)	inconclusive [inhibitor, partial curve, poor fit]	
Cc1cccc(/C=C(\c2nc3ccccc3[nH]2)S(=O)(=O)c2ccccc2)c1	active: 2.59 µM	
Cc1cc(NS(=O)(=O)c2cc(Cl)sc2Cl)no1	inactive	
CS(=O)(=O)N1CCC(C(=O)Nc2cccc(Br)c2)CC1	inactive	
CC(C)(C)OC(=O)N1CCC(c2c(C(=O)N3CCCCC3)cnn2-c2ccc(Cl)cc2)CC1	inconclusive [inhibitor, single point]	
Cc1ccc(C(=O)Nc2ncnc3sc4c(c23)CCCCC4)cc1	inconclusive [inhibitor, single point]	
Cc1c(-c2ccc(Br)cc2)c(=O)oc2ccc(OC(=O)N3CCOCC3)cc12	inconclusive [inhibitor, single point]	
Cc1ccc2[nH]c3c(=S)nc[nH]c3c2c1	inconclusive [inhibitor, partial curve]	
CCOc1ccc(N2C(=O)CC(Sc3ncccn3)C2=O)cc1 (stereo not drawn)	inconclusive [inhibitor, single point]	
COc1cc(C2CC(=O)c3c(O)cc(O)cc3O2)ccc1O (stereo not drawn)	inconclusive [inhibitor, single point]	
c1ccc(CSc2ncnc3c2cnn3-c2ccccc2)cc1	inactive	
S=C(N/N=C/c1ccc(Cl)c(Cl)c1)Nc1ccccc1Cl	inconclusive [inhibitor, partial curve, poor fit]	
COc1ccc(C(=O)N/N=C/c2sc3ccccc3c2O)cc1	active: 3.66 µM	
Cc1cccc(OCC(=O)Nc2ccc(N3CCN(S(C)(=O)=O)CC3)cc2)c1		inconclusive: -30.3% [inhibitor]
N#CCC(=O)Nc1nc(-c2ccc3c(c2)OCCO3)cs1	inconclusive [inhibitor, partial curve]	
COc1ccc(NS(=O)(=O)c2ccc(OC)c(N(C)S(=O)(=O)c3ccc(Cl)cc3)c2)cc1	active: 6.51 µM	
O=C(NCc1cccs1)c1ccc(Br)o1	inactive	
CC1C(=O)N(Cc2cn(CC3CCCCC3)nn2)CCS(=O)(=O)N1Cc1ccc(-c2ccc(Cl)cc2)cc1 (stereo not drawn)	active: 8.2 µM	
O=C(O)c1ccc2c(c1)C(=O)N(c1ccc(OCc3ccccc3)cc1)C2=O	inactive	

SMILES	Potency	activity change, negative = growth inhibition
NS(=O)(=O)c1ccc(CNC(=O)C(Cc2ccccc2)NS(=O)(=O)c2ccccc2F)cc1 (stereo not drawn)	inactive	
Cc1ccc(CC(C)(O)CC(C)(O)Cc2ccc(C)cc2)cc1 (stereo not drawn)	active: 18.4 µM	
COc1ccccc1N1CCN(S(=O)(=O)c2cc(Br)cnc2N)CC1	inconclusive [inhibitor, partial curve]	
CCOC(=O)[C@]12CCCC=C1N(Cc1ccccc1)C(=O)[C@H](CC(=O)N1CCCC1)C2	inconclusive [inhibitor, single point]	
C[C@@H]1CN([C@H](C)CO)S(=O)(=O)c2ccc(C#CCN(C)C)cc2O[C@@H]1CN(C)Cc1ccccc1F	inconclusive [inhibitor, single point]	
C=Cc1ccc(Cn2c(C)c(CNCc3cccc(Br)c3)c(C(=O)O)c2C)cc1	inactive	
COc1ccccc1NS(=O)(=O)c1cc(NC(=O)CCC(=O)c2cccs2)ccc1Cl	inconclusive [inhibitor, single point]	
CC(=O)N1CCN(CCN=CC2=C(O)CC(C)(C)CC2=O)CC1	inactive	
NC/C(=N\O)c1ccc(Cl)cc1Cl	inactive	
CCCc1[nH]n(-c2ccc([N+](=O)[O-])cc2)c(=O)c1C=NCCc1c[nH]c2ccccc12	inconclusive [inhibitor, single point]	
CCC(Cc1ccccc1)NC(=O)Cn1cccc1C(=O)c1ccccc1 (stereo not drawn)	inconclusive [inhibitor, full curve, poor fit]	
O=C1c2ccccc2C(=O)c2c1cccc2N1CCOCC1	inconclusive [inhibitor, single point]	
O=C(COc1ccccc1)Nc1nnc(-c2ccc3c(c2)CCCC3)o1	inactive	
O=C(O)CCSc1ccc([N+](=O)[O-])cc1[N+](=O)[O-]	inconclusive [inhibitor, partial curve, poor fit]	
O=C(CN(C(=O)c1csnn1)c1cccc(Cl)c1)NCCc1ccccc1	inactive	
COc1ccc(C(=O)Nc2ccc3nc(C)sc3c2)cc1S(=O)(=O)N1CCOCC1	inconclusive [inhibitor, single point]	
CCCCN(CC)C(=S)Nc1ccc2nc3n(c(=O)c2c1)CCCCC3	inactive	
COc1ccc(C(C)NC(=S)NCc2ccc(F)cc2)cc1OC (stereo not drawn)	inconclusive [inhibitor, single point]	
Cc1cccc(Cn2c(CNS(=O)(=O)c3ccc4c(c3)CCCC4)nc3cccnc32)c1	active: 16.4 µM	
COc1ccc(NC(=O)C(=O)NCCC2=CCCCC2)c(OC)c1	inconclusive [inhibitor, partial curve, poor fit]	
COc1ccc(S(=O)(=O)N2CCCN(S(=O)(=O)c3ccc(OC)cc3C)CC2)c(C)c1	inconclusive [inhibitor, partial curve]	
Cc1ccc(-n2c(CC#N)n[nH]c2=S)c(C)c1	inactive	
O=C(c1ccccc1Cl)N1c2ncnn2C2(CCCCC2)[C@@H]2CCCC[C@@H]21	inconclusive [inhibitor, single point]	
